Test results from PubChem BioAssay AID995 (National Center for Advancing Translational Sciences (NCATS), 2007).
Among all 72,000 compounds or so, about 710 (0.99%) were called active. The shares of active, inactive and inconclusive entries below differ from those in the screen. Calls come from the whole dose curve; as a rule, active = well fitted inhibition curve with a large enough effect; inconclusive = small, poorly fitted or top-dose-only effect; inactive = no such curve, though single readings can be large or run the other way. No potency is given beside an inconclusive call; the fits are too rough.
% is set by controls: 0 for no effect and ±100 for the full control effect; potency is the fitted concentration of half-maximal effect; tags give direction and shape of the fitted curve.

Test: qHTS Assay for Inhibitors of the ERK Signaling Pathway using a Homogeneous Screening Assay; note: nearly all actives have a fitted effect of over 55% in size
Details: HEK293-V1b, vasopressin-stimulated pERK AlphaScreen; activity, negative = inhibition: at 57.5 µM (top of the series) unless noted
How it was run: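 Phosphorylated ERK1/2 detected via AlphaScreen bead proximity in lysates of V1b-expressing HEK293 cells given 25 nM vasopressin for 5 min after 30 min compound exposure (37 °C). AC50 from Hill equation; basal DMSO 0%, vasopressin 100%.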
With COc1cc(-c2ccc(N=Nc3ccc4c(S(=O)(=O)O)cc(S(=O)(=O)O)c(N)c4c3O)c(OC)c2)ccc1N=Nc1ccc2c(S(=O)(=O)O)cc(S(=O)(=O)O)c(N)c2c1O the Potency was active: 15.8 µM.
For N#CC1=C2SCN(c3ccccc3)CN2C(=O)CC1c1cccs1 (centres undefined), the “activity, negative = inhibition” value was inactive: -29%.
In the case of COc1ccc(CN2C(=O)c3cccnc3C2Nc2ccc(OC)c(Cl)c2)cc1 (centres undefined), the Potency was inconclusive [inhibitor, partial curve].
For CCOC(=O)c1c(-c2ccc(C)o2)csc1N, the Potency was inconclusive [inhibitor, partial curve].
With CCOC(=O)c1c(C)c(C(=O)N2CCN(c3cccc(Cl)c3)CC2)c(C)n1C the Potency was inconclusive [inhibitor, partial curve].
With COC(=O)c1c(C)[nH]c(C(=O)COC(=O)Cc2ccc3c(c2)OCCO3)c1C the “activity, negative = inhibition” value was inactive: -21.7%.
With CCc1nc2ccccc2n(CC)c1=O the Potency was inconclusive [inhibitor, full curve, poor fit].
With CCc1ccc(C2CC(c3ccccc3C)n3nc(N)nc3N2)cc1 (centres undefined) the Potency was inconclusive [inhibitor, partial curve].
With CCOC(=O)c1c(C)[nH]c(C(=O)OC)c1CCC(=O)OC the Potency was inconclusive [inhibitor, partial curve].
For N=c1c(C(=O)NCc2ccco2)cc2c(=O)n3ccccc3nc2n1CCc1ccccc1, the Potency was inconclusive [inhibitor, single point].
In the case of CCCC[C@H]1C(=O)N(c2ccccc2)N(c2ccc(O)cc2)C1=O, the Potency was inconclusive [inhibitor, single point].
With COc1cc(OC)c(-c2nn3c(-c4cccnc4)nnc3s2)cc1OC the Potency was inconclusive [inhibitor, full curve].
In the case of CN1CCN(C(=O)Nc2cccc3ccccc23)CC1, the “activity, negative = inhibition” value was inactive: -10.3%.
With CCN(Cc1ccccc1)C(=O)CCCOc1ccccc1 the Potency was inconclusive [inhibitor, single point].
With CCOC(=O)N1CCN(C(=O)CSc2nnc(-c3cc(OC)ccc3OC)o2)CC1 the Potency was inconclusive [inhibitor, partial curve].
In the case of CNc1ccc(C(O)(C(F)(F)F)C(F)(F)F)cc1C(O)(C(F)(F)F)C(F)(F)F, the Potency was inconclusive [inhibitor, single point].
For Cc1ccc(OCC(=O)Nc2ccc(N3CCCC3)cc2)cc1C, the Potency was inconclusive [inhibitor, full curve].
For COc1ccc(Cn2nnnc2CN2CCC(c3nc4ccccc4s3)CC2)cc1, the Potency was inconclusive [inhibitor, single point].
With CN(C)C(=O)c1ccc(-c2nc(Nc3ccncc3)c3ccccc3n2)cc1 the “activity, negative = inhibition” value was inactive: -18.7%.
For c1ccc(-c2nn3c(-c4ccncc4)nnc3s2)nc1, the Potency was inconclusive [inhibitor, partial curve].
For CCc1ccc(NC2=CC(=O)CC(c3ccco3)C2)cc1 (centres undefined), the Potency was inconclusive [inhibitor, partial curve].
In the case of O=C(OCC1CC(c2ccccn2)=NO1)c1ccc(Br)cc1 (centres undefined), the activity, negative = inhibition was inconclusive: -31% [inhibitor].
For CC1CCN(C(=O)CSc2ccc(-c3ccc(F)cc3)nn2)CC1, the Potency was inconclusive [inhibitor, single point].
For CCC1(c2cccc(Cl)c2)NC(=O)N(Cc2cc(C(=O)OC)c(C)o2)C1=O (centres undefined), the Potency was inconclusive [inhibitor, single point].
With O=C(C1CCCN(S(=O)(=O)c2cccc3cccnc23)C1)N1CCc2ccccc21 (centres undefined) the Potency was inconclusive [inhibitor, partial curve].
With C(=N\n1cnnc1)/c1cccc(OCCOc2ccccc2)c1 the Potency was inconclusive [inhibitor, partial curve].
For O=C(Nc1ccc2nc(C3CC3)n(Cc3ccc(F)cc3)c(=O)c2c1)c1ccco1, the Potency was inconclusive [inhibitor, partial curve].
With c1ccc2c(c1)nc1n2C2(N3CCOCC3)CCCC2C1N1CCOCC1 (centres undefined) the Potency was inconclusive [inhibitor, partial curve].
With CCc1ccc(NC2CC(=O)N(c3ccc(OC)cc3OC)C2=O)cc1 (centres undefined) the Potency was inconclusive [inhibitor, single point].
In the case of CC(=O)N1CCC2(CC1)CCN(c1cccc(-c3ccccc3)c1)CC2, the Potency was inconclusive [inhibitor, single point].
In the case of FC(F)(F)c1cnc2c(c1)Nc1ccccc1S2, the “activity, negative = inhibition” value was inactive: 17.6%.
In the case of COc1ccc(Nc2cc(C)nc3ncnn23)c(OC)c1, the “activity, negative = inhibition” value was inactive: -18.7%.
For C=C(C)c1cccc(C(C)(C)NC(=O)N2CCN(c3ccccn3)CC2)c1, the “activity, negative = inhibition” value was inactive: 28.7%.
With c1ccc(-c2ccc(N3CC4(CCNCC4)C3)cc2)cc1 the Potency was inconclusive [inhibitor, single point].
In the case of NC(=O)c1cc(Br)cc2c3c([nH]c12)CCCC3, the Potency was inconclusive [inhibitor, partial curve].
In the case of COc1cc(OC)c(CN2CCN(c3ccc(F)cc3)CC2)cc1Br, the Potency was inconclusive [inhibitor, partial curve].
For Cc1ccc(NC(=O)Cn2cccc2)cc1Cl, the Potency was inconclusive [inhibitor, single point].
For CCOC(=O)c1c(NC(=O)CSc2nnc(-c3ccccc3C)n2C)sc(C(C)=O)c1C, the Potency was inconclusive [inhibitor, partial curve].
For CN(Cc1ccccc1)c1nc2c(c(=O)[nH]c(=O)n2C)n1Cc1ccccc1Cl, the Potency was active: 15.8 µM.
With COc1cccc(Nc2ncc3nc(CCc4ccccc4)c(=O)n(Cc4cccs4)c3n2)c1 the “activity, negative = inhibition” value was inactive: -10.2%.
For CC(CCc1ccco1)NC(=O)Nc1cccc(F)c1 (centres undefined), the Potency was inconclusive [inhibitor, full curve, poor fit].
With CCn1c(=O)n(CCOC)c(=O)c2c3c(sc21)CCCC3 the Potency was inconclusive [inhibitor, partial curve].
For COc1ccc2[nH]c(=O)c(CN(Cc3cccnc3)C(=O)Nc3ccccc3)cc2c1, the Potency was inconclusive [inhibitor, partial curve].
In the case of COc1ccccc1-n1c(=O)oc2ccc(Cl)cc2c1=O, the Potency was active: 20 µM.
In the case of CSc1nc2ccccc2n1C(=O)NC1CCCCC1, the Potency was inconclusive [inhibitor, partial curve].
For Cc1nn(Cc2ccccc2)c(Cl)c1C(=O)OC1CCOC1=O (centres undefined), the Potency was inconclusive [inhibitor, single point].
With COc1ccccc1NCCC(=O)OCC(=O)Nc1ccc(Cl)cn1 the Potency was inconclusive [inhibitor, partial curve].
In the case of O=C(Nc1nccs1)c1ccc(COc2ccccc2Br)o1, the Potency was inconclusive [inhibitor, single point].
With CCCC[C@@H]1C[C@H]1C(NC(=O)c1ccccc1)c1ccc(-c2ccccc2)cc1 (some centres undefined) the “activity, negative = inhibition” value was inactive: 22.2%.
In the case of O=C(Nc1ccccc1)OC[C@H](CN1CCCCC1)OC(=O)Nc1ccccc1, the “activity, negative = inhibition” value was inactive: -1.03% [at 25.7 µM].
For N#CC1=C(N)Oc2n[nH]c(-c3ccncc3)c2C1c1ccsc1 (centres undefined), the Potency was active: 10 µM.
In the case of CSC1=N/C(=C\C=C\c2cccs2)C(=O)S1, the Potency was inconclusive [inhibitor, single point].
In the case of O=C(c1ccncc1)N1CCC[C@@]2(CCN(c3cccc(-c4ccccc4)c3)C2)C1, the Potency was inconclusive [inhibitor, single point].
In the case of N#Cc1cccc(-c2nccc(NCc3cccnc3)n2)c1, the Potency was active: 15.8 µM.
For CCCCCCCCCCCCCCCCCCNC(=O)OC[C@@H](COP(=O)([O-])OCC[n+]1ccsc1)OC, the “activity, negative = inhibition” value was inactive: 15%.
For CC(=NCCCn1ccnc1)C1=C(O)c2ccccc2C1=O, the “activity, negative = inhibition” value was inactive: 5.04%.
With N#CC(=C(/N)Sc1ccccc1N)/C(C#N)=C(/N)Sc1ccccc1N the Potency was active: 0.199 µM.
For O=C(c1cccc(C(=O)N2CCN(c3ccc(F)cc3)CC2)c1)N1CCN(c2ccc(F)cc2)CC1, the Potency was inconclusive [inhibitor, partial curve].
For C=CC(=O)c1ccc2ccccc2c1, the Potency was active: 10 µM.
For CCn1c(=O)n(CC)c2cc(S(=O)(=O)N3CCC(c4ccccc4)CC3)ccc21, the Potency was inconclusive [inhibitor, partial curve, poor fit].
For O=C(Nc1nccs1)c1cc(S(=O)(=O)N2CCOCC2)ccc1Cl, the Potency was inconclusive [inhibitor, single point].
For COC(c1ccccc1Br)C(C)/C=C/CCO (centres undefined), the activity, negative = inhibition was inactive: 16.1% [at 11.5 µM].
For Cc1nc(NCc2ccco2)nc2c1C(=O)CC(C)C2 (centres undefined), the Potency was inconclusive [inhibitor, partial curve].
With O=C1CC(N2CCN(C/C=C/c3ccccc3)CC2)C(=O)N1CCc1ccccc1 (centres undefined) the Potency was inconclusive [inhibitor, single point].
In the case of COc1cccc2[nH]c3c(N4CCCCC4)ncnc3c12, the Potency was active: 20 µM.
In the case of COc1cc(/C=C/C(=O)N2CCC=CC2=O)cc(OC)c1OC, the Potency was inconclusive [inhibitor, single point].
For CS(=O)(=O)Nc1cccc(-c2nc(Nc3ccccc3)c3ccccc3n2)c1, the Potency was inconclusive [inhibitor, partial curve, poor fit].
In the case of CC1=Nc2ccc(C)cc2N(Cc2ccccc2)C(=O)C1, the Potency was inconclusive [inhibitor, partial curve, poor fit].
For COC(=O)[C@@]1(Cc2ccc(OC)cc2)[C@H]2c3cc(C(=O)N4CCCC4)n(Cc4cc(C)n(C)n4)c3C[C@H]2CN1C(=O)c1ccccc1, the “activity, negative = inhibition” value was inactive: -13.8%.
